The supplement of paper PMC8728848
The list shows a part of the results.

Legend:
Experiment in all cases: glycan array binding signal (z-score within array); higher = stronger binding
Conditions in all cases: glycan notation: IUPAC condensed, linker removed
[1] = biological target: Fuc(a1-2)Gal
How it was run: (§1)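 The Consortium for Functional Glycomics database supplied 3228 glycan arrays, of which those lacking an available protein sequence were dropped. The binding signal, a within-array Z-score, was averaged across arrays of the same protein sequence and across linkers. Negative scores can be read as non-binding.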

[2] = biological target: Fuc(a1-2)Gal(b1-3)GalNAc
How it was run: as §1

[3] = biological target: Fuc(a1-2)Gal(b1-3)GalNAc(a1-3)[Fuc(a1-2)]Gal(b1-4)Glc
How it was run: as §1

[4] = biological target: Fuc(a1-2)Gal(b1-3)GalNAc(a1-3)[Fuc(a1-2)]Gal(b1-4)GlcNAc
How it was run: as §1

[5] = biological target: Fuc(a1-2)Gal(b1-3)GalNAc(b1-3)Gal
How it was run: as §1

[6] = biological target: Fuc(a1-2)Gal(b1-3)GalNAc(b1-3)Gal(a1-4)Gal(b1-4)Glc
How it was run: as §1

[7] = biological target: Fuc(a1-2)Gal(b1-3)GalNAc(b1-4)[Neu5Ac(a2-3)]Gal(b1-4)Glc
How it was run: as §1

[8] = biological target: Fuc(a1-2)Gal(b1-3)GlcNAc
How it was run: as §1

[9] = biological target: Fuc(a1-2)Gal(b1-3)GlcNAc(b1-2)Man(a1-3)[Fuc(a1-2)Gal(b1-3)GlcNAc(b1-2)Man(a1-6)]Man(b1-4)GlcNAc(b1-4)GlcNAc
How it was run: as §1

[10] = biological target: Fuc(a1-2)Gal(b1-3)GlcNAc(b1-2)Man(a1-3)[Fuc(a1-2)Gal(b1-3)GlcNAc(b1-2)Man(a1-6)]Man(b1-4)GlcNAc(b1-4)[Fuc(a1-6)]GlcNAc
How it was run: as §1

[11] = biological target: Fuc(a1-2)Gal(b1-3)GlcNAc(b1-3)Gal(b1-4)Glc
How it was run: as §1

[12] = biological target: Fuc(a1-2)Gal(b1-3)GlcNAc(b1-3)GalNAc
How it was run: as §1

[13] = biological target: Fuc(a1-2)Gal(b1-3)GlcNAc(b1-3)[Fuc(a1-2)Gal(b1-3)GlcNAc(b1-6)]GalNAc
How it was run: as §1

[14] = biological target: Fuc(a1-2)Gal(b1-3)GlcNAc(b1-3)[Gal(b1-4)GlcNAc(b1-6)]Gal(b1-4)Glc
How it was run: as §1

[15] = biological target: Fuc(a1-2)Gal(b1-3)GlcNAc(b1-3)[Neu5Ac(a2-6)Gal(b1-4)GlcNAc(b1-6)]Gal(b1-4)Glc
How it was run: as §1

[16] = biological target: Fuc(a1-2)Gal(b1-3)GlcNAc6S
How it was run: as §1

[17] = biological target: Fuc(a1-2)Gal(b1-3)[Fuc(a1-4)]GlcNAc
How it was run: as §1

[18] = biological target: Fuc(a1-2)Gal(b1-3)[Fuc(a1-4)]GlcNAc(b1-2)Man(a1-3)[Fuc(a1-2)Gal(b1-3)[Fuc(a1-4)]GlcNAc(b1-2)Man(a1-3)]Man(b1-4)GlcNAc(b1-4)GlcNAc
How it was run: as §1

[19] = biological target: Fuc(a1-2)Gal(b1-3)[Fuc(a1-4)]GlcNAc(b1-2)Man(a1-3)[Fuc(a1-2)Gal(b1-3)[Fuc(a1-4)]GlcNAc(b1-2)Man(a1-6)]Man(b1-4)GlcNAc(b1-4)[Fuc(a1-6)]GlcNAc(b1-4)[Fuc(a1-6)]GlcNAc
How it was run: as §1

[20] = biological target: Fuc(a1-2)Gal(b1-3)[Fuc(a1-4)]GlcNAc(b1-3)[Fuc(a1-3)[Gal(b1-4)]GlcNAc(b1-6)]Gal(b1-4)Glc
How it was run: as §1

[21] = biological target: Fuc(a1-2)Gal(b1-3)[Fuc(a1-4)]GlcNAc(b1-3)[Gal(b1-4)GlcNAc(b1-6)]Gal(b1-4)Glc
How it was run: as §1

[22] = biological target: Fuc(a1-2)Gal(b1-4)Glc
How it was run: as §1

[23] = biological target: Fuc(a1-2)Gal(b1-4)Glc6S
How it was run: as §1

[24] = biological target: Fuc(a1-2)Gal(b1-4)GlcNAc
How it was run: as §1

[25] = biological target: Fuc(a1-2)Gal(b1-4)GlcNAc(b1-2)Man
How it was run: as §1

[26] = biological target: Fuc(a1-2)Gal(b1-4)GlcNAc(b1-2)Man(a1-3)[Fuc(a1-2)Gal(b1-4)GlcNAc(b1-2)Man(a1-6)]Man(b1-4)GlcNAc(b1-4)GlcNAc
How it was run: as §1

[27] = biological target: Fuc(a1-2)Gal(b1-4)GlcNAc(b1-2)Man(a1-3)[Fuc(a1-2)Gal(b1-4)GlcNAc(b1-2)Man(a1-6)]Man(b1-4)GlcNAc(b1-4)[Fuc(a1-6)]GlcNAc
How it was run: as §1

[28] = biological target: Fuc(a1-2)Gal(b1-4)GlcNAc(b1-2)[Fuc(a1-2)Gal(b1-4)GlcNAc(b1-4)]Man(a1-3)[Fuc(a1-2)Gal(b1-4)GlcNAc(b1-2)Man(a1-6)]Man(b1-4)GlcNAc(b1-4)GlcNAc
How it was run: as §1

[29] = biological target: Fuc(a1-2)Gal(b1-4)GlcNAc(b1-3)Gal(b1-4)GlcNAc
How it was run: as §1

[30] = biological target: Fuc(a1-2)Gal(b1-4)GlcNAc(b1-3)Gal(b1-4)GlcNAc(b1-2)Man(a1-3)[Fuc(a1-2)Gal(b1-4)GlcNAc(b1-3)Gal(b1-4)GlcNAc(b1-2)Man(a1-6)]Man(b1-4)GlcNAc(b1-4)GlcNAc
How it was run: as §1

[31] = biological target: Fuc(a1-2)Gal(b1-4)GlcNAc(b1-3)Gal(b1-4)GlcNAc(b1-3)Gal(b1-4)GlcNAc
How it was run: as §1

[32] = biological target: Fuc(a1-2)Gal(b1-4)GlcNAc(b1-3)GalNAc
How it was run: as §1

[33] = biological target: Fuc(a1-2)Gal(b1-4)GlcNAc(b1-3)[Fuc(a1-2)Gal(b1-4)GlcNAc(b1-6)]GalNAc
How it was run: as §1

[34] = biological target: Fuc(a1-2)Gal(b1-4)GlcNAc(b1-3)[Fuc(a1-3)[Gal(b1-4)]GlcNAc(b1-6)]Gal(b1-4)Glc
How it was run: as §1

[35] = biological target: Fuc(a1-2)Gal(b1-4)GlcNAc(b1-6)GalNAc
How it was run: as §1

[36] = biological target: Fuc(a1-2)Gal(b1-4)GlcNAc6S
How it was run: as §1

[37] = biological target: Fuc(a1-2)Gal(b1-4)[Fuc(a1-3)]GlcNAc
How it was run: as §1

[38] = biological target: Fuc(a1-2)Gal(b1-4)[Fuc(a1-3)]GlcNAc(b1-2)Man(a1-3)[Fuc(a1-2)Gal(b1-4)[Fuc(a1-3)]GlcNAc(b1-2)Man(a1-6)]Man(b1-4)GlcNAc(b1-4)[Fuc(a1-6)]GlcNAc
How it was run: as §1

[39] = biological target: Fuc(a1-2)Gal(b1-4)[Fuc(a1-3)]GlcNAc(b1-2)[Fuc(a1-2)Gal(b1-4)[Fuc(a1-3)]GlcNAc(b1-4)]Man(a1-3)[Fuc(a1-2)Gal(b1-4)[Fuc(a1-3)]GlcNAc(b1-2)Man(a1-6)]Man(b1-4)GlcNAc(b1-4)GlcNAc
How it was run: as §1

[40] = biological target: Fuc(a1-2)Gal(b1-4)[Fuc(a1-3)]GlcNAc(b1-3)Gal(b1-4)[Fuc(a1-3)]GlcNAc
How it was run: as §1

[41] = biological target: Fuc(a1-2)Gal(b1-4)[Fuc(a1-3)]GlcNAc(b1-3)Gal(b1-4)[Fuc(a1-3)]GlcNAc(b1-3)Gal(b1-4)[Fuc(a1-3)]GlcNAc
How it was run: as §1

[42] = biological target: Fuc(a1-2)Gal(b1-4)[Fuc(a1-3)]GlcNAc(b1-3)GalNAc
How it was run: as §1

[43] = biological target: Fuc(a1-2)Gal(b1-4)[Fuc(a1-3)]GlcNAc(b1-3)[Neu5Ac(a2-6)Gal(b1-4)GlcNAc(b1-6)]Gal(b1-4)Glc
How it was run: as §1

[44] = biological target: Fuc(a1-2)Gal3S(b1-4)GlcNAc
How it was run: as §1

[45] = biological target: Fuc(a1-2)Gal6S(b1-3)GlcNAc
How it was run: as §1

B1: Als3-2 (Candida albicans) (protein)
chain: KTITGVFNSFNSLTWSNAATYNYKGPGTPTWNAVLGWSLDGTSASPGDTFTLNMPCVFKFTTSQTSVDLTAHGVKYATCQFQAGEEFMTFSTLTCTVSNTLTPSIKALGTVTLPLAFNVGGTGSSVDLEDSKCFTAGTNTVTFNDGGKKISINVDFERSNVDPKGYLTD
[1]
  glycan array binding signal (z-score): -0.54
[2]
  glycan array binding signal (z-score): -0.486
[3]
  glycan array binding signal (z-score): -0.676
[4]
  glycan array binding signal (z-score): -0.3
[5]
  glycan array binding signal (z-score): 1.77
[6]
  glycan array binding signal (z-score): -0.284
[7]
  glycan array binding signal (z-score): -0.5
[8]
  glycan array binding signal (z-score): -0.264
[9]
  glycan array binding signal (z-score): 7.12
[10]
  glycan array binding signal (z-score): -0.63
[11]
  glycan array binding signal (z-score): -0.562
[12]
  glycan array binding signal (z-score): -0.63
[13]
  glycan array binding signal (z-score): 2.86
[14]
  glycan array binding signal (z-score): -0.553
[15]
  glycan array binding signal (z-score): -0.229
[16]
  glycan array binding signal (z-score): -0.516
[17]
  glycan array binding signal (z-score): -0.734
[18]
  glycan array binding signal (z-score): 0.831
[19]
  glycan array binding signal (z-score): -0.415
[20]
  glycan array binding signal (z-score): -0.632
[21]
  glycan array binding signal (z-score): 0.876
[22]
  glycan array binding signal (z-score): -0.655
[23]
  glycan array binding signal (z-score): -0.225
[24]
  glycan array binding signal (z-score): -0.585
[25]
  glycan array binding signal (z-score): -0.542
[26]
  glycan array binding signal (z-score): -0.706
[27]
  glycan array binding signal (z-score): -0.536
[28]
  glycan array binding signal (z-score): -0.534
[29]
  glycan array binding signal (z-score): -0.561
[30]
  glycan array binding signal (z-score): 0.533
[31]
  glycan array binding signal (z-score): -0.596
[32]
  glycan array binding signal (z-score): 9.17
[33]
  glycan array binding signal (z-score): 1.09
[34]
  glycan array binding signal (z-score): -0.649
[35]
  glycan array binding signal (z-score): 0.696
[36]
  glycan array binding signal (z-score): -0.281
[37]
  glycan array binding signal (z-score): -0.609
[38]
  glycan array binding signal (z-score): 0.334
[39]
  glycan array binding signal (z-score): 0.327
[40]
  glycan array binding signal (z-score): -0.615
[41]
  glycan array binding signal (z-score): -0.635
[42]
  glycan array binding signal (z-score): 0.952
[43]
  glycan array binding signal (z-score): -0.606
[44]
  glycan array binding signal (z-score): 0.7
[45]
  glycan array binding signal (z-score): -0.086
